From the supplement of paper PMC4604168 (melanoma cell lines)
The list shows a part of the results. Many values rest on one well or one pass, so single values are uncertain.

Key:
Assay in all cases: cell count relative to DMSO control; melanoma cells; higher = more viable cells
Conditions in all cases: library dose: low library concentration; 72 h
MeWo = test system: MeWo
RPMI7951 = test system: RPMI7951
RVH-421 = test system: RVH-421
SkMel28 = test system: SkMel28
SkMel30 = test system: SkMel30
UACC62 = test system: UACC62
WM115 = test system: WM115
WM1716 = test system: WM1716
WM1745 = test system: WM1745
WM3619 = test system: WM3619
WM451Lu = test system: WM451Lu
SkMel2 = test system: SkMel2
WM3526 = test system: WM3526
MZ2-MEL = test system: MZ2-MEL
SkMel5 = test system: SkMel5
UACC257 = test system: UACC257
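Note: cell number obtained by counting DAPI-stained nuclei in high-throughput microscope images with image analysis software, screen run in 1,536-well plates.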

SMILES | cell count (MeWo) [%] | cell count (RPMI7951) [%] | cell count (RVH-421) [%] | cell count (SkMel28) [%] | cell count (SkMel30) [%] | cell count (UACC62) [%] | cell count (WM115) [%] | cell count (WM1716) [%] | cell count (WM1745) [%] | cell count (WM3619) [%] | cell count (WM451Lu) [%] | cell count (SkMel2) [%] | cell count (WM3526) [%] | cell count (MZ2-MEL) [%] | cell count (SkMel5) [%] | cell count (UACC257) [%]
N#CC[C@H](C1CCCC1)n1cc(-c2ncnc3[nH]ccc23)cn1 [ruxolitinib] + NC(=O)c1ccc(N(C(N)=O)c2c(F)cccc2F)nc1-c1ccc(F)cc1F [VX702] (first compound 1 µM, partner dose 0.4 µM) | 99.1 | 96.4 | 87.1 | 95 | 108 | 111 | 102 | 116 | 104 | 104 | 116 | – | – | – | – | –
N#CC[C@H](C1CCCC1)n1cc(-c2ncnc3[nH]ccc23)cn1 [ruxolitinib] + CCN(CC)CCNC(=O)c1c(C)[nH]c(/C=C2\C(=O)Nc3ccc(F)cc32)c1C [sunitinib] (first compound 1 µM, partner dose 0.4 µM) | 100 | 115 | 120 | 92.2 | 98.5 | 126 | 119 | 132 | 97.4 | 120 | 124 | 111 | 104 | – | – | –
Cc1cc(Nc2cc(N3CCN(C)CC3)nc(Sc3ccc(NC(=O)C4CC4)cc3)n2)n[nH]1 [Tozasertib] + CO[C@H]1C[C@@H]2CC[C@@H](C)[C@@](O)(O2)C(=O)C(=O)N2CCCC[C@H]2C(=O)O[C@H]([C@H](C)C[C@@H]2CC[C@@H](OCCO)[C@H](OC)C2)CC(=O)[C@H](C)/C=C(\C)[C@@H](O)[C@@H](OC)C(=O)[C@H](C)C[C@H](C)/C=C/C=C/C=C/1C [everolimus] (first compound 0.006 µM, partner dose 0.02 µM) | 65.2 | 79.1 | 80.6 | 51.4 | 75.4 | 65.7 | 75 | 62.3 | 66.9 | 78.4 | 99.1 | – | 70.3 | 76.3 | – | –
CC[C@]1(O)C[C@H]2CN(CCc3c([nH]c4ccccc34)[C@@](C(=O)OC)(c3cc4c(cc3OC)N(C=O)[C@H]3[C@@](O)(C(=O)OC)[C@H](OC(C)=O)[C@]5(CC)C=CCN6CC[C@]43[C@@H]65)C2)C1 [vincristine] + Cn1c(=O)n(-c2ccc(C(C)(C)C#N)cc2)c2c3cc(-c4cnc5ccccc5c4)ccc3ncc21 [NVP-BEZ235] (first compound 0.0001 µM, partner dose 0.004 µM) | 70.3 | 58.6 | 78.2 | 67.3 | 51.6 | 51.9 | 43.9 | 44.1 | 87.4 | 81.5 | 56.3 | 88.7 | 78.8 | – | – | –
N#CC[C@H](C1CCCC1)n1cc(-c2ncnc3[nH]ccc23)cn1 [ruxolitinib] + Cn1c(=O)n(-c2ccc(C(C)(C)C#N)cc2)c2c3cc(-c4cnc5ccccc5c4)ccc3ncc21 [NVP-BEZ235] (first compound 1 µM, partner dose 0.004 µM) | 86.5 | 95.9 | 81.5 | – | 99.1 | – | 109 | 88.3 | 99.6 | 96.8 | 81.1 | 102 | 98.9 | 98.7 | – | –
N#CC[C@H](C1CCCC1)n1cc(-c2ncnc3[nH]ccc23)cn1 [ruxolitinib] + O=C(O)[C@@H]1[O][Sb](=[O])([O][Sb]2(=[O])[O][C@H]([C@H](O)CO)[C@H](O)[C@H](C(=O)O)[O]2)[O][C@H]([C@H](O)CO)[C@@H]1O [stibogluconate] (first compound 1 µM, partner dose 2 µM) | 92.4 | 87.2 | – | 114 | 96.5 | 106 | 99.4 | 92.8 | 96.8 | 93.7 | 67.5 | 92.4 | 108 | 97.2 | – | –
N#CC[C@H](C1CCCC1)n1cc(-c2ncnc3[nH]ccc23)cn1 [ruxolitinib] + CN1CCN(c2ccc3nc(-c4c(N)c5c(F)cccc5[nH]c4=O)[nH]c3c2)CC1 [Dovitinib] (first compound 1 µM, partner dose 0.1 µM) | 96.1 | – | 128 | 140 | 93 | 119 | 123 | 116 | 99.1 | 115 | 99.9 | 106 | 102 | 96.2 | – | –
CC[C@]1(O)C[C@H]2CN(CCc3c([nH]c4ccccc34)[C@@](C(=O)OC)(c3cc4c(cc3OC)N(C=O)[C@H]3[C@@](O)(C(=O)OC)[C@H](OC(C)=O)[C@]5(CC)C=CCN6CC[C@]43[C@@H]65)C2)C1 [vincristine] + Cn1cnc2c(F)c(Nc3ccc(Br)cc3Cl)c(C(=O)NOCCO)cc21 [selumetinib] (first compound 0.0001 µM, partner dose 0.015 µM) | 90.7 | 51.6 | 84.1 | 73.7 | 55 | 57.2 | 48.8 | 54.4 | 86.6 | 47.7 | 65.2 | – | 74.4 | 94.7 | – | –
CC[C@]1(O)C[C@H]2CN(CCc3c([nH]c4ccccc34)[C@@](C(=O)OC)(c3cc4c(cc3OC)N(C=O)[C@H]3[C@@](O)(C(=O)OC)[C@H](OC(C)=O)[C@]5(CC)C=CCN6CC[C@]43[C@@H]65)C2)C1 [vincristine] + C=C(c1ccc(C(=O)O)cc1)c1cc2c(cc1C)C(C)(C)CCC2(C)C [Bexarotene] (first compound 0.0001 µM, partner dose 2 µM) | 82.5 | 67 | 112 | 69.8 | 60.8 | 62.5 | 55.9 | 45.6 | 85 | 63.4 | 62.2 | 77.1 | 69.6 | – | – | –
CC[C@]1(O)C[C@H]2CN(CCc3c([nH]c4ccccc34)[C@@](C(=O)OC)(c3cc4c(cc3OC)N(C=O)[C@H]3[C@@](O)(C(=O)OC)[C@H](OC(C)=O)[C@]5(CC)C=CCN6CC[C@]43[C@@H]65)C2)C1 [vincristine] + Cn1c(Nc2ccc(C(F)(F)F)cc2)nc2cc(Oc3ccnc(-c4ncc(C(F)(F)F)[nH]4)c3)ccc21 [CHIR265] (first compound 0.0001 µM, partner dose 0.08 µM) | 49.4 | 44.7 | 61.2 | 45.8 | 40.7 | 31 | 33 | 49.3 | 59.6 | 62.8 | 67.6 | – | 38.9 | 70.2 | – | –
CC[C@]1(O)C[C@H]2CN(CCc3c([nH]c4ccccc34)[C@@](C(=O)OC)(c3cc4c(cc3OC)N(C=O)[C@H]3[C@@](O)(C(=O)OC)[C@H](OC(C)=O)[C@]5(CC)C=CCN6CC[C@]43[C@@H]65)C2)C1 [vincristine] + C[C@@H](Oc1cc(-c2cnn(C3CCNCC3)c2)cnc1N)c1c(Cl)ccc(F)c1Cl [Crizotinib] (first compound 0.0001 µM, partner dose 0.2 µM) | 87.7 | 87.2 | 74.5 | 70.3 | 64.8 | 58.7 | 53.1 | 46.6 | 83.4 | 66.8 | 88 | 99.2 | 67.4 | – | – | –
N#CC[C@H](C1CCCC1)n1cc(-c2ncnc3[nH]ccc23)cn1 [ruxolitinib] + NC1(c2ccc(-c3nc4ccn5c(=O)[nH]nc5c4cc3-c3ccccc3)cc2)CCC1 [MK2206] (first compound 1 µM, partner dose 0.4 µM) | 94.8 | 113 | 102 | 97 | 96.6 | 91.6 | 87.1 | 104 | 84.6 | 94 | 91.7 | 92 | 89 | – | – | –
Cc1cc(Nc2cc(N3CCN(C)CC3)nc(Sc3ccc(NC(=O)C4CC4)cc3)n2)n[nH]1 [Tozasertib] + Cc1cc([N+](=O)[O-])ccc1NS(=O)(=O)c1cc(Cl)ccc1Cl [FH535] (first compound 0.006 µM, partner dose 1 µM) | 87.2 | 86.5 | 83.2 | 81.1 | 111 | 80.2 | 82.2 | 77.7 | 80.6 | 114 | 102 | 90.2 | 80.6 | – | 90.7 | 103
